Target: T1, PD-L1 on IFNAR1-/- A20 cells (UniProt Q9EP73)
T1 construct: whole, on cells; Endogenous PD-L1 of A20 cells
Experiment: flow cytometry on IFNAR1-/- A20 cells expressing PD-L1, detected with PE-anti-human IgG Fc; '-' means no binding

T1 sequence (Q9EP73 19-290 limits assumed): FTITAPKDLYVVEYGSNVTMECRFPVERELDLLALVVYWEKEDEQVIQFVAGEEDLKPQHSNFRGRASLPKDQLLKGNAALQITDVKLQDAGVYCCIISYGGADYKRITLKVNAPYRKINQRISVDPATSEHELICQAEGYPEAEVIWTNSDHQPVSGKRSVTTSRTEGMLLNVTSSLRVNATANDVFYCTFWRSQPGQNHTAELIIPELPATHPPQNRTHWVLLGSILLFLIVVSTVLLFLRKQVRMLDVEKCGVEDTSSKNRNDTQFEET

binding result: no binding
B1: IFN-Fc (Fc fusion)
chain: CDLPHTYNLGNKRALTVLEEMRRLPPLSCLKDRKDFGFPLEKVDNQQIQKAQAILVLRDLTQQILNLFTSKDLSATWNATLLDSFCNDLHQQLNDLKACVMQEPPLTQEDSLLAVRTYFHRITVYLRKKKHSLCAWEVIRAEVWRALSSSTNLLARLSEEKESGGGGSGGGGSGGGGSGGGGRT[skipping human IgG1 Fc with changes and a few adjoining residues]
notes: also called IFNα-Fc; mIFNα4-Fc
